Assay results published in the supplement of paper PMC10037445.
Whole data set: some 2,900 compounds, median “IRF Lucia reporter activity, fold change vs agonist alone” near 0.9, cut for the highest 2% near 2.8. The list shows a part of the results.

Assays:
[1] = test system: RAW-Dual; assay: IRF Lucia reporter activity, fold change vs agonist alone; higher = enhanced IRF activity; conditions: library stock concentration (final ~1000-fold dilution): 10 mM, agonist: MPLA (TLR4) […]
In short: (§1)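 RAW-Dual macrophages were seeded in DMEM at 50,000 cells/well in 384-well plates, given 50 nL of library stock by pin tool, and given a PRR agonist 1 h later. Plates were held at 37 °C, 5% CO2 for 20 hours, after which supernatant was read for IRF by QuantiLuc luminescence and for NF-κB by QuantiBlue absorbance at 620 nm. Reporter activity is expressed as fold change over wells that received agonist alone. A well was called cytotoxic when IncuCyte confluency fell below 70% of agonist controls in both mask sets.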

[2] = test system: RAW-Dual; assay: IRF Lucia reporter activity, fold change vs agonist alone; cytotoxicity flag (confluency mask): not cytotoxic; higher = enhanced IRF activity
In short: as §1

[3] = test system: RAW-Dual; assay: IRF Lucia reporter activity, fold change vs agonist alone; cytotoxicity flag (confluency mask): cytotoxic (confluency <70% of control); higher = enhanced IRF activity
In short: as §1

[4] = cytotoxicity flag (confluency mask): not cytotoxic
[5] = agonist: 3'3'-cGAMP (STING) 10 ug/mL
[6] = cytotoxicity flag (confluency mask): cytotoxic (confluency <70% of control)

C=CC(=O)Nc1cccc(Nc2nc(Nc3ccc(NC4CN(CCF)C4)cc3OC)ncc2C(F)(F)F)c1
IRF Lucia reporter activity [1, 4]: 0.176

C=CC(=O)Nc1cccc(Nc2nc(Nc3ccc(NC4CN(CCF)C4)cc3OC)ncc2C(F)(F)F)c1 (library stock concentration (final ~1000-fold dilution): 10 mM)
IRF Lucia reporter activity [2, 5]: 0.0185
IRF Lucia reporter activity ([2]; agonist: LPS (TLR4) 0.1 ug/mL): 0.146

O=C(O)CC(O)CC(O)C=Cc1c(C2CC2)nc2ccccc2c1-c1ccc(F)cc1 (configuration not stated) (library stock concentration (final ~1000-fold dilution): 10 mM)
IRF Lucia reporter activity [2, 5]: 0.387
IRF Lucia reporter activity ([2]; agonist: LPS (TLR4) 0.1 ug/mL): 0.712

O=C(O)CC(O)CC(O)C=Cc1c(C2CC2)nc2ccccc2c1-c1ccc(F)cc1 (configuration not stated)
IRF Lucia reporter activity [1, 4]: 0.442

CN1C2=C3N=c4ccccc4=C3CCN2C(=O)c2ccccc21
IRF Lucia reporter activity [1, 4]: 1.19

CN1C2=C3N=c4ccccc4=C3CCN2C(=O)c2ccccc21 (library stock concentration (final ~1000-fold dilution): 10 mM)
IRF Lucia reporter activity [2, 5]: 1.42
IRF Lucia reporter activity ([2]; agonist: LPS (TLR4) 0.1 ug/mL): 1.48

CS(=O)(=O)Nc1ccc([N+](=O)[O-])cc1Oc1ccccc1 (library stock concentration (final ~1000-fold dilution): 10 mM)
IRF Lucia reporter activity [2, 5]: 1.1
IRF Lucia reporter activity ([2]; agonist: LPS (TLR4) 0.1 ug/mL): 0.972

CS(=O)(=O)Nc1ccc([N+](=O)[O-])cc1Oc1ccccc1
IRF Lucia reporter activity [1, 4]: 0.957

N#CN=C(NCCCCCCOc1ccc(Cl)cc1)Nc1ccncc1 (library stock concentration (final ~1000-fold dilution): 10 mM)
IRF Lucia reporter activity [2, 5]: 1.12
IRF Lucia reporter activity ([2]; agonist: LPS (TLR4) 0.1 ug/mL): 0.935

O=C(O)/C(S)=C/c1c[nH]c2ccc(F)cc12
IRF Lucia reporter activity [1, 4]: 0.961

O=C(O)/C(S)=C/c1c[nH]c2ccc(F)cc12 (library stock concentration (final ~1000-fold dilution): 10 mM)
IRF Lucia reporter activity [2, 5]: 0.447
IRF Lucia reporter activity ([2]; agonist: LPS (TLR4) 0.1 ug/mL): 0.99

Cl.Cl.Cl.Cl.Nc1cc(N)c(N)cc1N
IRF Lucia reporter activity [1, 6]: 0.0155

Cl.Cl.Cl.Cl.Nc1cc(N)c(N)cc1N (library stock concentration (final ~1000-fold dilution): 10 mM)
IRF Lucia reporter activity [3, 5]: 0.0145
IRF Lucia reporter activity ([3]; agonist: LPS (TLR4) 0.1 ug/mL): 0.0149

CCNC(=O)c1noc(-c2cc(Cl)c(O)cc2O)c1-c1ccc(OC)cc1
IRF Lucia reporter activity [1, 4]: 0.818

CCNC(=O)c1noc(-c2cc(Cl)c(O)cc2O)c1-c1ccc(OC)cc1 (library stock concentration (final ~1000-fold dilution): 10 mM)
IRF Lucia reporter activity [2, 5]: 0.782
IRF Lucia reporter activity ([2]; agonist: LPS (TLR4) 0.1 ug/mL): 0.827

Cn1ncc(Cl)c1-c1cc(C(=O)NC(CN)Cc2cccc(F)c2)sc1Cl (configuration not stated)
IRF Lucia reporter activity [1, 4]: 1.46

Cn1ncc(Cl)c1-c1cc(C(=O)NC(CN)Cc2cccc(F)c2)sc1Cl (configuration not stated) (library stock concentration (final ~1000-fold dilution): 10 mM)
IRF Lucia reporter activity [2, 5]: 0.627
IRF Lucia reporter activity ([2]; agonist: LPS (TLR4) 0.1 ug/mL): 1.2

CCOc1nc2cccc(C(=O)O)c2n1Cc1ccc(-c2ccccc2-c2nc(=O)o[nH]2)cc1
IRF Lucia reporter activity [1, 4]: 1.16

CCOc1nc2cccc(C(=O)O)c2n1Cc1ccc(-c2ccccc2-c2nc(=O)o[nH]2)cc1 (library stock concentration (final ~1000-fold dilution): 10 mM)
IRF Lucia reporter activity [2, 5]: 1.04
IRF Lucia reporter activity ([2]; agonist: LPS (TLR4) 0.1 ug/mL): 1.1

CC=CCC(C)C(O)C1C(=O)NC(CC)C(=O)N(C)CC(=O)N(C)C(CC(C)C)C(=O)NC(C(C)C)C(=O)N(C)C(CC(C)C)C(=O)NC(C)C(=O)NC(C)C(=O)N(C)C(CC(C)C)C(=O)N(C)C(CC(C)C)C(=O)N(C)C(C(C)C)C(=O)N1C (configuration not stated) (library stock concentration (final ~1000-fold dilution): 10 mM)
IRF Lucia reporter activity [2, 5]: 0.661
IRF Lucia reporter activity ([2]; agonist: LPS (TLR4) 0.1 ug/mL): 1.03

CC=CCC(C)C(O)C1C(=O)NC(CC)C(=O)N(C)CC(=O)N(C)C(CC(C)C)C(=O)NC(C(C)C)C(=O)N(C)C(CC(C)C)C(=O)NC(C)C(=O)NC(C)C(=O)N(C)C(CC(C)C)C(=O)N(C)C(CC(C)C)C(=O)N(C)C(C(C)C)C(=O)N1C (configuration not stated)
IRF Lucia reporter activity [1, 4]: 0.735

COc1ccc(C(NC(=O)c2cnc(-c3cccnn3)nc2O)c2ccc(OC)cc2)cc1 (library stock concentration (final ~1000-fold dilution): 10 mM)
IRF Lucia reporter activity [2, 5]: 0.924
IRF Lucia reporter activity ([2]; agonist: LPS (TLR4) 0.1 ug/mL): 1.03

CCOc1cc(C(CS(C)(=O)=O)N2C(=O)c3cccc(NC(C)=O)c3C2=O)ccc1OC (configuration not stated) (library stock concentration (final ~1000-fold dilution): 10 mM)
IRF Lucia reporter activity [2, 5]: 0.968
IRF Lucia reporter activity ([2]; agonist: LPS (TLR4) 0.1 ug/mL): 0.75

CCOc1ccc2ccccc2c1C(=O)NC1C(=O)N2C1SC(C)(C)C2C(=O)O (configuration not stated)
IRF Lucia reporter activity [1, 4]: 1.16

CCOc1ccc2ccccc2c1C(=O)NC1C(=O)N2C1SC(C)(C)C2C(=O)O (configuration not stated) (library stock concentration (final ~1000-fold dilution): 10 mM)
IRF Lucia reporter activity [2, 5]: 1.09
IRF Lucia reporter activity ([2]; agonist: LPS (TLR4) 0.1 ug/mL): 1.27

O=C(N/N=C/c1ccc([N+](=O)[O-])o1)c1ccc(O)cc1 (library stock concentration (final ~1000-fold dilution): 10 mM)
IRF Lucia reporter activity [3, 5]: 0.611
IRF Lucia reporter activity ([3]; agonist: LPS (TLR4) 0.1 ug/mL): 1.12

O=C(N/N=C/c1ccc([N+](=O)[O-])o1)c1ccc(O)cc1
IRF Lucia reporter activity [1, 6]: 1.32
